# Sequences with one replicate were seen in a single cluster, so their values are uncertain.
# System: ATP
# Assay: switch fluorescence ratio, 500 uM ATP over buffer (Cy3 cluster intensity, sum of 5 cycles each) (fold (ratio)); higher = stronger signal-on switching upon ATP binding; sequences stand for … in TCGTCGGCAGCGTCAGATGTGTATAAGAGACAGTTTTTTTTTTTTTTTTTTTTTTTTT…TC
# Conditions: aptamer strand: ATP DNA aptamer (quencher-CACCTGGGGGAGTATTGCGGAGGAAGG + anchor), 100 nM annealed; ATP concentration: 500 uM; one replicate
# How it was run: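 After annealing to 100 nM quencher-labelled ATP aptamer, Cy3-labelled switching-strand clusters on a modified Illumina MiSeq flow-cell were imaged in selection buffer. A second image followed after 15 min with 500 uM ATP at 22 °C, and five such buffer/ATP cycles were done, each separated by NaOH stripping and re-annealing. The fluorescence ratio, averaged per switch-domain sequence, is summed target-cycle over summed buffer-cycle Cy3 intensity per cluster, with clusters outside 100-1000 RFU excluded.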
# 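Note: ATP exposure 15 min at 22 °C before imaging.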
row,Sequence,switch fluorescence ratio
1,GCCCATGCAC,1.05
2,GCCCCCTGGT,1.07
3,GCCCCGACCT,1.19
4,GCCCCGCCCG,1.1
5,GCCCCGGTGG,1.13
6,GCCCCTCATC,1.05
7,GCCCCTTTAT,1.01
8,GCCCGAAGG,1.01
9,GCCCGAAGGC,1.04
10,GCCCGAGTCC,1.06
11,GCCCGAGTTT,0.992
12,GCCCGCGGTC,1.3
13,GCCCGCTCCC,1.87
14,GCCCGGTACA,0.984
15,GCCCGTGGGG,0.992
16,GCCCGTGGTC,1.04
17,GCCCGTTCCG,1.03
18,GCCCTCGTGG,1.03
19,GCCCTTGCTG,0.944
20,GCCGAATTGC,1.01
21,GCCGACGGA,1.04
22,GCCGACTGTA,0.989
23,GCCGACTTTC,1.02
24,GCCGAGATTA,0.973
25,GCCGAGCATG,1.24

row,Sequence,switch fluorescence ratio
1,GCCGAGGTA,0.966
2,GCCGATGTAG,0.986
3,GCCGCACCCG,1.45
4,GCCGCCCAGG,2.64
5,GCCGGAACTC,1.02
6,GCCGGATCGC,1.06
7,GCCGGCATGC,1.03
8,GCCGGCGATC,1.01
9,GCCGGGGAAG,0.977
10,GCCGGGGATT,1.11
11,GCCGGGGGAA,1.03
12,GCCGGTAAA,1
13,GCCGGTAGTT,0.995
14,GCCGGTATAC,2.7
15,GCCGGTGCTG,0.987
16,GCCGGTTGCC,1.04
17,GCCGTAGCTT,1.07
18,GCCGTCATTT,1.01
19,GCCGTCCTTG,0.977
20,GCCGTTCCCA,0.987
21,GCCGTTCGTC,1.02
22,GCCGTTGAAA,1.03
23,GCCTAAAGAC,1.2
24,GCCTAACACA,1.01
25,GCCTAATGCA,1.02

row,Sequence,switch fluorescence ratio
1,GCCTACAAAG,0.973
2,GCCTACTCGA,1.09
3,GCCTAGTATG,0.972
4,GCCTATGTAA,1.02
5,GCCTATTAAC,1
6,GCCTATTGGC,0.993
7,GCCTCCGGGC,2.29
8,GCCTCGGGGT,0.994
9,GCCTCTTCCG,1.06
10,GCCTGAGGTG,1.46
11,GCCTGCCGGT,1
12,GCCTGGAG,0.999
13,GCCTGGGTCT,1.02
14,GCCTGGTGGT,1.06
15,GCCTGTGATT,0.992
16,GCCTTAATGC,1.11
17,GCCTTACGAT,1.39
18,GCCTTATCCC,0.992
19,GCCTTCTCAA,1.32
20,GCCTTCTTAG,1.06
21,GCCTTTAGTC,1.01
22,GCCTTTGGTC,0.959
23,GCGAATAGGG,1.02
24,GCGAATAGGT,0.982
25,GCGAATTCGC,1.01

row,Sequence,switch fluorescence ratio
1,GCGACAAAGC,1.05
2,GCGACATTAG,0.979
3,GCGACCAATC,2.63
4,GCGACCCTCT,1.14
5,GCGACCGGGA,0.983
6,GCGACGGGTG,1.06
7,GCGACTCGT,1.02
8,GCGACTGGGG,0.983
9,GCGACTGTGC,1.03
10,GCGAGGACAC,1.02
11,GCGAGGCTTA,1.04
12,GCGAGGCTTT,1.04
13,GCGAGTTTTT,1
14,GCGATAACCT,2.13
15,GCGATAATA,0.996
16,GCGATCGTCA,0.954
17,GCGATCTGG,1.02
18,GCGATGGGTT,1.02
19,GCGATTGAAA,1.08
20,GCGATTGACT,1.07
21,GCGATTTTCG,0.968
22,GCGCAAAGTA,1.06
23,GCGCAATTCC,3.05
24,GCGCACTCAG,1.04
25,GCGCAGTAAC,3.03

row,Sequence,switch fluorescence ratio
1,GCGCATGCTG,1.06
2,GCGCATTTGC,1.26
3,GCGCCCCGTA,1.03
4,GCGCCTCACT,1.04
5,GCGCCTTTAA,0.994
6,GCGCGGGCAG,0.97
7,GCGCGTCGGC,0.981
8,GCGCTACTTC,1.55
9,GCGCTAGACC,1.26
10,GCGCTATTAG,1.23
11,GCGCTCTAGA,0.917
12,GCGCTGCCCC,1.21
13,GCGCTGTCCC,1.13
14,GCGCTTCATG,1.13
15,GCGCTTCCTC,2.11
16,GCGCTTCGTG,0.998
17,GCGCTTGTGT,0.963
18,GCGCTTTTGA,1.01
19,GCGGACGCCA,0.986
20,GCGGACGGTT,1.02
21,GCGGACTATC,1.01
22,GCGGAGATTA,1.02
23,GCGGAGGGCA,0.966
24,GCGGAGTTAG,1.05
25,GCGGATATAC,3.43

row,Sequence,switch fluorescence ratio
1,GCGGCAGCGT,0.966
2,GCGGCGACAT,1.57
3,GCGGCTAATG,0.967
4,GCGGCTCGAC,1.01
5,GCGGCTTTGT,0.982
6,GCGGGAAGAA,0.982
7,GCGGGATGCT,1.01
8,GCGGGCGCCA,1.01
9,GCGGGCGG,0.97
10,GCGGGCTTTC,1.02
11,GCGGGGACTA,0.988
12,GCGGGGGCGA,0.955
13,GCGGGTAGAG,1.03
14,GCGGGTTGTC,1.01
15,GCGGTAATAG,1.32
16,GCGGTAGCTT,0.994
17,GCGGTATTGT,0.986
18,GCGGTCAAGT,0.972
19,GCGGTCCTTA,0.954
20,GCGGTCGCCC,1.03
21,GCGGTGCCGG,1.02
22,GCGGTTGATC,1.02
23,GCGTAAATAG,1.31
24,GCGTAACATA,0.99
25,GCGTAACGTC,1

row,Sequence,switch fluorescence ratio
1,GCGTAATAAA,1.01
2,GCGTAATAAT,1.21
3,GCGTACTAGC,0.994
4,GCGTAGCGCT,0.962
5,GCGTATAGTA,1.02
6,GCGTATAGTC,1.02
7,GCGTATGTAA,1
8,GCGTCAGCGT,1
9,GCGTCCTAGT,1
10,GCGTCGACTG,0.928
11,GCGTCTAGGG,1
12,GCGTGAAGCT,0.937
13,GCGTGAGGAA,0.983
14,GCGTGATTAA,1.04
15,GCGTGATTCA,0.986
16,GCGTGCGCTT,1.01
17,GCGTGGAGAC,1.11
18,GCGTGGCAAT,1.06
19,GCGTGTGTG,1.05
20,GCGTGTTGTA,1.05
21,GCGTTATCGG,1.05
22,GCGTTATGGG,0.988
23,GCGTTCAGTA,0.997
24,GCGTTGGCG,0.982
25,GCGTTGTCAA,1.02

row,Sequence,switch fluorescence ratio
1,GCGTTTCTGT,0.983
2,GCTAAATACT,1.17
3,GCTAAATCCA,0.973
4,GCTAACGGGA,1.03
5,GCTAAGAGTA,0.98
6,GCTAATGTCG,1.13
7,GCTAATTGA,0.981
8,GCTAATTTCG,0.999
9,GCTACAAGGG,1.05
10,GCTACAGGGC,1.09
11,GCTACATACA,1.4
12,GCTACATTAG,1.01
13,GCTACTGGGT,0.94
14,GCTACTTAG,1.05
15,GCTACTTCTC,1.11
16,GCTAGAGGCA,1
17,GCTAGCTGGG,1.02
18,GCTAGCTTCC,2.11
19,GCTAGGCAGA,1.02
20,GCTAGGGC,0.997
21,GCTAGGGGAG,0.986
22,GCTAGGGTAA,1.04
23,GCTAGTAATG,1.01
24,GCTAGTCGAA,0.946
25,GCTAGTCGGG,0.959
